Test results published in the supplement of paper PMC10338343.
± gives the standard deviation. Whole data set: some 5,500 sequences, median “pre-steady-state target cleavage rate” near 0.1, cut for the highest 2% near 0.64. Only a part is listed here, and it is no random draw.

System: MIWI (PIWIL1) piRISC loaded with piRNA #2 (30 nt)
Assay: pre-steady-state target cleavage rate (min^-1); MIWI and MILI are mouse PIWI proteins and EfPiwi is from a freshwater sponge; tags in brackets are library labels; higher = faster piRNA-guided slicing of the target
Settings: guide: piRNA #2 5'p-UUAGGUAACCCAGUAGAUCCAGAGGAAUUC; auxiliary factor: 500 nM mouse GTSF1
How it was run: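 Reactions were run for 0–8 or 0–960 min at 33 °C in HEPES–potassium acetate buffer, combining 1 nM active affinity-purified piRISC with one synthetic guide, […] transcribed, DNA-blocked target RNA library and, in some cases, 500 nM GTSF1 partner protein. Sequencing of uncleaved targets followed, with normalisation to depth and to weakly complementary targets. Three trials were pooled, k3 was capped at 0.0001 min^-1, and the pre-steady-state cleavage rate was taken from a burst-and-steady-state fit.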

Row | Sequence | pre-steady-state target cleavage rate
1 | CUUAACCUCUGGAUCUACUGGGUUUCGUAA | 0.101 ± 0.016
2 | CUUAAGGAGUUGAUCUACUGGGUUACCUAA | 0.00536 ± 0.0017
3 | CAAUUCCACUGGAUCAACUGGGUUACCUAA | 0.415 ± 0.044
4 | CUUAUCCACUGGAUCUACUGGGUAACCUAA | 0.256 ± 0.042
5 | CUUAAGCUCUGGAUCUACAGGGUAACCUAA | 0.039 ± 0.0086
6 | CUUUUCCUCUGGUUCUACUGGGUAACCUAA | 0.0949 ± 0.021
7 | CUUAAGGACAGGAUCUACUGGGUUAGCUAA | 0.00714 ± 0.0063
8 | CUUAAGGUCUGGAUCUACUGGGUUCACCUAA | 0.117 ± 0.019
9 | CAAUACCUCUGGAUCUACUGCGUUACCUAA | 0.488 ± 0.063
10 | CUUAAGGUCUGGUCUACUGGGUUACCUAA | 0.00625 ± 0.0034
11 | CUAUUCCUCUGGAUCUACUGGGUUUGGUAA | 0.0833 ± 0.031
12 | CAAUAGGUCUGGAUCUACUGGGUUACCUAA | 0.337 ± 0.025
13 | CAAUUCGUCUGGAUCUUCUGGGUUACCUAA | 0.203 ± 0.027
14 | CUUUUCCUCUGGAUCUACUGGGUUAGCAAA | 0.112 ± 0.026
15 | CUAUUCCUUCUGGAUCUACUGGGUUACCUAA | 0.506 ± 0.049
16 | GUAUUCCUCUGGUUCUACUGGGUUACCUAA | 0.0955 ± 0.034
17 | CUUAAGGAGUGGAUGUACUGGGUUACCUUA | 0.0163 ± 0.011
18 | CUUAUCCUCUGGAUCUACACGGUUACCUAA | 0.211 ± 0.026
19 | CUUAAGGUGUGGAUCUACUGGGUUACCAAA | 0.0404 ± 0.017
20 | CAAUUCCUCUGCAUCUACUGGCUUACCUAA | 0.149 ± 0.015
21 | CUUAAGCUCUGGAACAACUGGGUUACCUAA | 0.138 ± 0.02
22 | CUUAAGGAGUGGAUCUACUGGGUUAACUAA | 0.0555 ± 0.02
23 | CAAAUCCUCUGGUUCUACUGGGUUACCUAA | 0.79 ± 0.044

Row | Sequence | pre-steady-state target cleavage rate
24 | CUUAAGCUCUGGAUGUACUGGGUUACGUAA | 0.414 ± 0.038
25 | CAAUUCCUCUGGAUCUACAGGGUUACCUAA | 0.308 ± 0.03
26 | CUAUUCCUCUGGAUCUUCUCGGUUACCUAA | 0.0723 ± 0.011
27 | CUUUUCCUCUGGAUCUUGUGGGUUACCUAA | 0.00502 ± 0.0027
28 | CUUAAGCUCAGGAUCUACUGGGUUACGUAA | 0.25 ± 0.036
29 | CUUAACCUCUGGAUCCACUGGGUUACCUAA | 0.0949 ± 0.011
30 | CUUAUCCUCCGGAUCUACUGGGUUACCUAA | 0.61 ± 0.1
31 | CUUUUCGUCUGGAUCUACUGGGUAACCUAA | 0.129 ± 0.024
32 | CUUUUCCUCUGGAUCUACUGGGUUUCCUAA | 0.414 ± 0.07
33 | CUUUUCCUCUGGAUCUACAGGCUUACCUAA | 0.026 ± 0.0064
34 | GAAUUCCUCUGGAUCUACUGGGUUUGCUAA | 0.414 ± 0.048
35 | CUUAUCCUCUGGAUCUACAGCGUUACCUAA | 0.155 ± 0.019
36 | CUUAAGCUCUGGAUCUACUCGGUAACCUAA | 0.00645 ± 0.0057
37 | CUAUUCCUCUGGAUCAACUGGGUUACCUUA | 0.295 ± 0.039
38 | GAAUUCGUCUGGAUCUACUGGGUUUCCUAA | 0.469 ± 0.06
39 | CUUUUCCUCUGGAUGUACUGCGUUACCUAA | 0.477 ± 0.084
40 | CUUAACCACUGGAUCUACUGGGUUAGCUAA | 0.0758 ± 0.02
41 | CUAUUCCUGUGGAACUACUGGGUUACCUAA | 0.213 ± 0.054
42 | CUUAUCCUCUGGUUCUACUGGGUUACGUAA | 0.454 ± 0.056
43 | CAAUUCCUCUGGAUCUACAGGGUAACCUAA | 0.129 ± 0.023
44 | CUAUUGCCUCUGGAUCUACUGGGUUACCUAA | 0.215 ± 0.03
45 | CAAUUCCUCUGGAUCGUACUGGGUUACCUAA | 0.00821 ± 0.0059
46 | CUUAAGGAGACGAUCUACUGGGUUACCUAAA | 0.00455 ± 0.0028

Row | Sequence | pre-steady-state target cleavage rate
47 | CUUUUCCUCUGGAUCUAGUGGGUUUCCUAA | 0.058 ± 0.01
48 | CUUAACCUCUGGAUCUACUCGGUAACCUAA | 0.0105 ± 0.0073
49 | CUUAAGGUCUCGGAUCUACUGGGUUACCUAA | 0.2 ± 0.032
50 | CUUAAGGUCUGCAUCUACUCGGUUACCUAA | 0.02 ± 0.017
51 | CUUAAGGUCGGGAUCUACUGGGUUACCUAA | 0.0779 ± 0.022
52 | CUUAACCUCUGGAUCUACUAGGUUACCUAA | 0.103 ± 0.015
53 | CAAUUCCUCUGGAUCUACUCGGUUACCUUA | 0.0915 ± 0.033
54 | CUUAAGGUCUGGACCUACUGGGUUACCUAA | 0.11 ± 0.021
55 | CACUUCCUCUGGAUCUACUGGGUUACCUAA | 0.456 ± 0.056
56 | CUUAAGGACAUGGAUCUACUGGGUUACCUAA | 0.111 ± 0.031
57 | CUUAACCUCUGGUAGUACUGGGUUACCUAA | 0.132 ± 0.018
58 | CUAUUCCUCUCGAUCUACUGGGUUACCAAA | 0.711 ± 0.047
59 | CUUUACCUCUGGAUCUACUGGGUUUCCUAA | 0.167 ± 0.029
60 | CUUAAGGUCUGGAUCUACUGGGUUACCUAC [g2:g23:cont:t1C] | 0.246 ± 0.027
61 | CUUAUCCUCUGGUUCUACUGGGUUACCUUA | 0.368 ± 0.058
62 | CUUUUCCUGUGGAUCUACUGGGUUACCUAA | 0.486 ± 0.049
63 | CUUAUCCUCUGGAUCUACUCGGUUACCAAA | 0.0835 ± 0.031
64 | CUUAUCGUCUGGAUCUAGUGGGUUACCUAA | 0.0569 ± 0.018
65 | GAAUUGCACUGGAUCUACUGGGUUACCUAA | 0.0867 ± 0.028
66 | CUAUUCCUCAGGAUCUACUGGCUUACCUAA | 0.0647 ± 0.013
67 | CUUAACCUCUCGAUCUACUCGGUUACCUAA | 0.129 ± 0.013
68 | CUUUUCCUCUCGAUCUACUGGGUAACCUAA | 0.345 ± 0.033
69 | CUAUUCCUCAGGAUCUACUGGGUAACCUAA | 0.206 ± 0.042

Row | Sequence | pre-steady-state target cleavage rate
70 | CUUAACCUCUGGAUCUACUCCGUUACCUAA | 0.0247 ± 0.0072
71 | CUUAACCUCUGGAUCUAGUGGGUAACCUAA | 0.0284 ± 0.0067
72 | CUUAAGGUCUCGAUCUAGUGGGUUACCUAA | 0.0405 ± 0.0073
73 | CUUAACCUGUGGAUCUACUGGGAUACCUAA | 0.14 ± 0.017
74 | GAUUUCCUCUGGAACUACUGGGUUACCUAA | 0.225 ± 0.04
75 | CUUUCCUCUGGAUCUACUGGGUUACCUAA | 0.349 ± 0.052
76 | GAAUUCCUCUGGAUGAACUGGGUUACCUAA | 0.249 ± 0.033
77 | CUUAAGGACUGGAUCUACUGGGUUACGUAA | 0.413 ± 0.093
78 | CUUAUCCUCUGGAUCUACUGGGGUUACCUAA | 0.0233 ± 0.0067
79 | CAAUACCUCUGGAUCUACUGGGUAACCUAA | 0.18 ± 0.035
80 | CUUAAGGUCUGGUUCAACUGGGUUACCUAA | 0.141 ± 0.032
81 | CUUAAGCUCUGGUCUACUGGGUUACCUAA | 0.0318 ± 0.0076
82 | CUUAACCUCAGGAUCUAGUGGGUUACCUAA | 0.128 ± 0.017
83 | CUUAAGCUCAGCAUCUACUGGGUUACCUAA | 0.169 ± 0.017
84 | GAAUUGCUCUGGAUCUACUGGGAUACCUAA | 0.077 ± 0.024
85 | CUUAAGGACUUGGAUCUACUGGGUUACCUAA | 0.153 ± 0.033
86 | CUUAACCUCUGGAUCUUCUCGGUUACCUAA | 0.0364 ± 0.0059
87 | CUUAAGCUGCUGGAUCUACUGGGUUACCUAA | 0.0922 ± 0.012
88 | CUUAAGGUCUGGAUCUACUGGGUUUACCUAA | 0.269 ± 0.037
89 | CUUAACCUAUGGAUCUACUGGGUUACCUAA | 0.424 ± 0.034
90 | CUAUUCCUCUGGAUCUACUGGAGUUACCUAA | 0.00422 ± 0.0041
91 | CUUAACCUCUCGAUCAACUGGGUUACCUAA | 0.429 ± 0.035
92 | CUUAAGCUGUGGAUCUACUGCGUUACCUAA | 0.13 ± 0.044
